Measured values published in the supplement of paper PMC3334620.
Whole data set: some 33,000 sequences, median “E-score (-0.5 to 0.5)” near -0.054, cut for the highest 2% near 0.35. The list shows a part of the results.

biological target: T1, Stb5 (UniProt P38699); experiment: PBM E-score (8-mer binding enrichment) (E-score (-0.5 to 0.5)); higher = stronger / more preferred TF binding; most listed sequences are background and not binding sites; details: protein concentration: 200 nM; construct: GST-full length
T1 sequence: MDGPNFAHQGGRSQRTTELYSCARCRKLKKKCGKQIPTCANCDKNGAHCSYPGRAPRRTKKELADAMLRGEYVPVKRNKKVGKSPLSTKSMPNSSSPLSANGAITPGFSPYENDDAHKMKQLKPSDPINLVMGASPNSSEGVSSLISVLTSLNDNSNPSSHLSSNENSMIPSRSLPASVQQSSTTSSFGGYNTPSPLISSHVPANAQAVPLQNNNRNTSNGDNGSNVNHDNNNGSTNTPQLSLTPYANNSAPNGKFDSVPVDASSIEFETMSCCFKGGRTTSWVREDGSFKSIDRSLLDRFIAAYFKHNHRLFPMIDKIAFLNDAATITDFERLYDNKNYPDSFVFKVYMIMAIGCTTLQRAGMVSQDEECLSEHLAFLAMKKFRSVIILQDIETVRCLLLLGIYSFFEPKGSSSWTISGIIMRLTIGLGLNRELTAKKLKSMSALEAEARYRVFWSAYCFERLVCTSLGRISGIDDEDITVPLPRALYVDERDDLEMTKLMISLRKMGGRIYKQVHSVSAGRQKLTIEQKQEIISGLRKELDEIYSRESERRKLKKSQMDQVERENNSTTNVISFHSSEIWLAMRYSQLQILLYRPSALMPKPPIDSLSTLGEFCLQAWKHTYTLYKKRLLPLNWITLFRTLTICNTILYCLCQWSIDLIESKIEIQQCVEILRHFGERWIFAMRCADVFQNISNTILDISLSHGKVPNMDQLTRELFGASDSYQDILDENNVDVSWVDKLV
In short: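 Full-length yeast transcription factors or their DNA-binding domains, GST-tagged and expressed with PURExpress, were applied at about 100-200 nM to universal all-10-mer Agilent arrays. These arrays had been made double-stranded by primer extension on fresh or once-stripped slides. Detection used fluorescent anti-GST, normalisation used masliner, and E-scores for ungapped eight-base words pooled with reverse complements came from the Universal PBM Analysis Suite.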

**Q.** GAACTAAA was tested. Which “PBM E-score” value did it give?
**A.** The value was 0.019.

**Q.** How did the “PBM E-score” value turn out when CGACGGAC was run?
**A.** Its value is 0.368.

**Q.** CCATTGGA was tested. Which “PBM E-score” value did it give?
**A.** Its value is -0.238.

**Q.** Which “PBM E-score” value does the source give for GATGTGTA here?
**A.** The value was -0.208.

**Q.** With ATCAAGCG as the sequence, how does the “PBM E-score” value read?
**A.** Its value is 0.0918.

**Q.** How did the “PBM E-score” value turn out when CATTTCGC was run?
**A.** Its value is -0.00541.

**Q.** With CTTTGCGC as the sequence, how does the “PBM E-score” value read?
**A.** The value was -0.00385.

**Q.** How did the “PBM E-score” value turn out when AAAATGAA was run?
**A.** The value was -0.0668.

**Q.** How did the “PBM E-score” value turn out when GCGCATTA was run?
**A.** The value was 0.00556.

**Q.** For AGATCTTA, which “PBM E-score” value is on record?
**A.** Its value is -0.18.

**Q.** With CTTGCGCA as the sequence, how does the “PBM E-score” value read?
**A.** The value was -0.0783.

**Q.** How did the “PBM E-score” value turn out when GTTACTCA was run?
**A.** Its value is -0.0863.

**Q.** With CGGGATGC as the sequence, how does the “PBM E-score” value read?
**A.** Its value is -0.0328.

**Q.** Which “PBM E-score” value does the source give for CGTGATGC here?
**A.** The value was 0.128.

**Q.** With CCGACGGC as the sequence, how does the “PBM E-score” value read?
**A.** Its value is 0.372.

**Q.** For CCTTAACG, which “PBM E-score” value is on record?
**A.** Its value is 0.136.

**Q.** CACCACCA was tested. Which “PBM E-score” value did it give?
**A.** Its value is -0.147.

**Q.** With AAATGCGG as the sequence, how does the “PBM E-score” value read?
**A.** The value was 0.212.

**Q.** GTTTGAAA was tested. Which “PBM E-score” value did it give?
**A.** Its value is -0.0201.

**Q.** For ACAATGTG, which “PBM E-score” value is on record?
**A.** Its value is -0.258.

**Q.** GCCACATA was tested. Which “PBM E-score” value did it give?
**A.** Its value is 0.00329.

**Q.** Which “PBM E-score” value does the source give for CGCTTACC here?
**A.** The value was 0.0132.

**Q.** How did the “PBM E-score” value turn out when ACATGCGT was run?
**A.** Its value is -0.123.

**Q.** How did the “PBM E-score” value turn out when CGAAGTGC was run?
**A.** Its value is 0.0417.

**Q.** Which “PBM E-score” value does the source give for GTATTCCA here?
**A.** Its value is -0.0568.

**Q.** TTACTAAA was tested. Which “PBM E-score” value did it give?
**A.** Its value is -0.0138.

**Q.** With CCTAGGCG as the sequence, how does the “PBM E-score” value read?
**A.** The value was -0.235.

**Q.** How did the “PBM E-score” value turn out when CATGATTC was run?
**A.** The value was -0.129.

**Q.** Which “PBM E-score” value does the source give for ACACAACC here?
**A.** The value was -0.136.

**Q.** With GTCAGAAA as the sequence, how does the “PBM E-score” value read?
**A.** The value was -0.222.

**Q.** For AATAAAAC, which “PBM E-score” value is on record?
**A.** Its value is 0.114.

**Q.** GGCAAGTA was tested. Which “PBM E-score” value did it give?
**A.** The value was 0.0287.

**Q.** Which “PBM E-score” value does the source give for ATAATGGA here?
**A.** The value was 0.0837.

**Q.** How did the “PBM E-score” value turn out when CGTGCAGC was run?
**A.** Its value is -0.044.

**Q.** How did the “PBM E-score” value turn out when ACCCATTC was run?
**A.** Its value is -0.127.

**Q.** Which “PBM E-score” value does the source give for GGGGGCCA here?
**A.** Its value is -0.0999.

**Q.** With ATTACTAA as the sequence, how does the “PBM E-score” value read?
**A.** The value was 0.00433.

**Q.** For ACATGCTG, which “PBM E-score” value is on record?
**A.** Its value is -0.199.

**Q.** Which “PBM E-score” value does the source give for ATACTATG here?
**A.** The value was -0.0158.

**Q.** With AATAAGCG as the sequence, how does the “PBM E-score” value read?
**A.** The value was 0.026.

**Q.** How did the “PBM E-score” value turn out when CCCGTAGC was run?
**A.** The value was 0.0927.

**Q.** For CTACACAC, which “PBM E-score” value is on record?
**A.** The value was -0.15.

**Q.** How did the “PBM E-score” value turn out when AATTCACA was run?
**A.** Its value is -0.17.

**Q.** Which “PBM E-score” value does the source give for CAACGTTA here?
**A.** The value was 0.0299.

**Q.** For GACGGGGC, which “PBM E-score” value is on record?
**A.** Its value is 0.309.

**Q.** With AGCTCCAA as the sequence, how does the “PBM E-score” value read?
**A.** Its value is -0.313.

**Q.** With GGCCTCGA as the sequence, how does the “PBM E-score” value read?
**A.** Its value is -0.0639.

**Q.** CCTGGCAA was tested. Which “PBM E-score” value did it give?
**A.** Its value is -0.253.

**Q.** GTCACTAA was tested. Which “PBM E-score” value did it give?
**A.** The value was -0.073.

**Q.** Which “PBM E-score” value does the source give for ATTACCGC here?
**A.** Its value is 0.419.

**Q.** For TCAAGGGA, which “PBM E-score” value is on record?
**A.** Its value is 0.0305.

**Q.** Which “PBM E-score” value does the source give for AGGCGCGA here?
**A.** The value was -0.00867.

**Q.** How did the “PBM E-score” value turn out when ATCAACCC was run?
**A.** The value was -0.00187.

**Q.** Which “PBM E-score” value does the source give for GCTTCCCC here?
**A.** The value was -0.0123.

**Q.** With TAGTCTCA as the sequence, how does the “PBM E-score” value read?
**A.** Its value is -0.146.

**Q.** How did the “PBM E-score” value turn out when AAGGGTGC was run?
**A.** Its value is -0.195.

**Q.** Which “PBM E-score” value does the source give for ACCCCACA here?
**A.** Its value is -0.121.

**Q.** For CATTTCCG, which “PBM E-score” value is on record?
**A.** The value was 0.183.

**Q.** How did the “PBM E-score” value turn out when ACCCAGAG was run?
**A.** The value was -0.109.

**Q.** CCCGCCAG was tested. Which “PBM E-score” value did it give?
**A.** Its value is 0.318.

**Q.** With CTACGACA as the sequence, how does the “PBM E-score” value read?
**A.** Its value is -0.0655.

**Q.** How did the “PBM E-score” value turn out when CGTTAGGC was run?
**A.** The value was 0.147.

**Q.** CAAAAAGA was tested. Which “PBM E-score” value did it give?
**A.** Its value is -0.115.

**Q.** How did the “PBM E-score” value turn out when AACCTACT was run?
**A.** Its value is 0.00837.

**Q.** CTCGGAGC was tested. Which “PBM E-score” value did it give?
**A.** Its value is 0.0927.

**Q.** With CATTTGGA as the sequence, how does the “PBM E-score” value read?
**A.** Its value is 0.0571.

**Q.** For AGAGTTCA, which “PBM E-score” value is on record?
**A.** Its value is -0.277.

**Q.** How did the “PBM E-score” value turn out when GACCCGTC was run?
**A.** The value was 0.203.

**Q.** With CGGGGGGA as the sequence, how does the “PBM E-score” value read?
**A.** The value was 0.181.

**Q.** How did the “PBM E-score” value turn out when AGGGCTGG was run?
**A.** The value was -0.0581.

**Q.** How did the “PBM E-score” value turn out when AACATATA was run?
**A.** The value was 0.0905.

**Q.** For CTAAGTTC, which “PBM E-score” value is on record?
**A.** Its value is -0.148.

**Q.** GGAGATCC was tested. Which “PBM E-score” value did it give?
**A.** The value was 0.0751.

**Q.** Which “PBM E-score” value does the source give for TTGCAAAA here?
**A.** Its value is 0.0291.

**Q.** For AATGTCTA, which “PBM E-score” value is on record?
**A.** The value was -0.258.

**Q.** How did the “PBM E-score” value turn out when CACCGACC was run?
**A.** The value was 0.418.

**Q.** How did the “PBM E-score” value turn out when AGACCGCA was run?
**A.** Its value is 0.275.

**Q.** Which “PBM E-score” value does the source give for ACTGCGAT here?
**A.** The value was -0.12.

**Q.** For AATGTTAA, which “PBM E-score” value is on record?
**A.** Its value is -0.0426.

**Q.** CAAGCAAG was tested. Which “PBM E-score” value did it give?
**A.** The value was -0.086.

**Q.** Which “PBM E-score” value does the source give for GCAGTTTA here?
**A.** Its value is 0.101.

**Q.** For CTGAGGGA, which “PBM E-score” value is on record?
**A.** Its value is -0.213.

**Q.** Which “PBM E-score” value does the source give for GTACGCAA here?
**A.** Its value is -0.167.

**Q.** CCCAAGTA was tested. Which “PBM E-score” value did it give?
**A.** The value was -0.169.

**Q.** With CCCGGCAC as the sequence, how does the “PBM E-score” value read?
**A.** The value was 0.165.

**Q.** For AATCAAGG, which “PBM E-score” value is on record?
**A.** Its value is 0.0379.

**Q.** CTAGCAGA was tested. Which “PBM E-score” value did it give?
**A.** The value was -0.129.

**Q.** With GGGACCTA as the sequence, how does the “PBM E-score” value read?
**A.** Its value is 0.138.

**Q.** AGAGTCTA was tested. Which “PBM E-score” value did it give?
**A.** Its value is -0.327.

**Q.** For CGCACACG, which “PBM E-score” value is on record?
**A.** The value was 0.0188.

**Q.** For GTCAAGAA, which “PBM E-score” value is on record?
**A.** Its value is -0.158.

**Q.** How did the “PBM E-score” value turn out when ATTGTGAC was run?
**A.** Its value is -0.131.

**Q.** ATTTAAAA was tested. Which “PBM E-score” value did it give?
**A.** The value was 0.133.

**Q.** Which “PBM E-score” value does the source give for CAATAATA here?
**A.** Its value is 0.0756.
